According to PubChem BioAssay AID1768 (National Center for Advancing Translational Sciences (NCATS), 2009):
Among all 270,000 compounds or so, about 620 (0.23%) were called active. Inconclusive means that the source gave no clear call. Such entries were picked first, then a sample of the others. Calls follow the shape of the dose curve; as a rule, active = well fitted inhibition curve with a large enough effect in the polarisation, with a control signal flat (not every such curve was filed as active); inconclusive = small, poorly fitted or top-dose-only effect, or effect the other way, or a change in a side signal; inactive = no such curve, though single readings can be large or run the other way; the % refers to the polarisation. Potencies beside an inconclusive call are fits to weak or partial responses and may not hold up. A note “side channel” means that the fit belongs to a control or component signal, not to the main read-out.

target: Menin (Homo sapiens) (UniProt O00255); assay: qHTS Assay for Inhibitors Targeting the Menin-MLL Interaction in MLL Related Leukemias: Competition With Texas Red Labeled MLL-derived Mutant Peptide; settings: fluorescence polarization; series mostly up to 61.6 µM
UniProt O00255, sequence (O00255 whole entry, looked up): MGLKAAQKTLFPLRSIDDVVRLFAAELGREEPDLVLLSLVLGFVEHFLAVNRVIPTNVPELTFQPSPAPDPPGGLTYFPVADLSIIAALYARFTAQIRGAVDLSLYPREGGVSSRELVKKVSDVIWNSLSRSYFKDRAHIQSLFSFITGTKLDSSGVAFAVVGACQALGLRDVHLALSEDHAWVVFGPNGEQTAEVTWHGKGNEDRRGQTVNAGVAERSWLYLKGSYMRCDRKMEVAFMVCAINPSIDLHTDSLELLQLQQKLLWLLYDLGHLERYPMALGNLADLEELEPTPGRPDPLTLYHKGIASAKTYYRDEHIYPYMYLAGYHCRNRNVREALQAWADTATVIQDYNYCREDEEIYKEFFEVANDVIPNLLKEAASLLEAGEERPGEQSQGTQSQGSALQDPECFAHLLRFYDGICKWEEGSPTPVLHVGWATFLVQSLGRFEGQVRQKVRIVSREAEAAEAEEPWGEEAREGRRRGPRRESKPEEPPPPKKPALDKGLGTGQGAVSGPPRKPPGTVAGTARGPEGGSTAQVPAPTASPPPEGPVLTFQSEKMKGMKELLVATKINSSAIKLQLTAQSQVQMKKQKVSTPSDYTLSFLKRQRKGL
Potency is read from the fitted curve at half-maximal effect; tags tell the direction and shape of the fitted curve or compound fluorescence and quenching.

SMILES | Potency
Cc1snc(S(=O)(=O)/C(C#N)=N/Nc2ccc(C(F)(F)F)cc2)c1C#N | inconclusive: 31.6 µM [quencher, side channel, partial curve]
O=C(O)c1ccc(N2CCN(c3ccc(Cl)cc3)CC2)c([N+](=O)[O-])c1 | inconclusive: 22.4 µM [quencher, side channel, single point]
CC1CCc2sc(C(=O)Nc3ccc(N4CCOCC4)cc3)cc2C1 (centres undefined) | inconclusive: 12.6 µM [quencher, side channel, partial curve, poor fit]
O=C(NC1CCCCC1)C(c1ccc(F)cc1)N(C(=O)c1csnn1)C1CCCC1 (centres undefined) | inconclusive: 8.91 µM [inhibitor, partial curve]
CCOC(=O)N1CCN(S(=O)(=O)N2CCCC(C(=O)NCCc3ccc(C)cc3)C2)CC1 (centres undefined) | inconclusive: 2.82 µM [quencher, side channel, full curve, poor fit]
CC(C)C(=O)Nc1ccc(NC(=S)NC(=O)c2ccc([N+](=O)[O-])cc2)cc1 | inconclusive: 12.6 µM [quencher, side channel, partial curve]
Oc1ccc(Br)cc1-c1nc2cnccn2c1NC1CCCC1 | inconclusive: 28.2 µM [quencher, side channel, single point]
COc1cc2c(cc1NC(=O)Nc1cccc(C)c1)oc1ccccc12 | inconclusive: 7.08 µM [quencher, side channel, partial curve]
COc1ccc(-c2noc(C3CCCN(C(=O)c4ccccc4OC)C3)n2)cc1OC (centres undefined) | inconclusive: 1.78 µM [inhibitor, partial curve]
NNc1nc2c(-c3cccc(C(F)(F)F)c3)nnn2c2ccccc12 | inconclusive: 7.08 µM [quencher, side channel, partial curve]
CC[C@@H]1C=C(C)C[C@H](C)C[C@H](OC)[C@H]2O[C@@](O)(C(=O)C(=O)N3CCCC[C@H]3C(=O)O[C@H](/C(C)=C/[C@@H]3CC[C@@H](O)[C@H](OC)C3)[C@H](C)[C@@H](O)CC1=O)[C@H](C)C[C@@H]2OC | inconclusive: 8.91 µM [fluorescent, side channel, full curve, poor fit]
CO/N=C\CC(=O)Nc1ccc(Cl)c(Cl)c1 | active: 25.1 µM
CCN(CC)CCN(C(=O)c1ccc2c(c1)CCCC2)c1nc2ccc(OC)cc2s1 | inconclusive: 7.94 µM [fluorescent, side channel, partial curve]
CSC(=S)N/N=C/c1c[nH]c2ccccc12 | inconclusive: 17.8 µM [quencher, side channel, partial curve]
c1ccc2c(c1)oc1c(N3CCN(Cc4ccc5c(c4)OCO5)CC3)ncnc12 | inconclusive: 22.4 µM [fluorescent, side channel, single point]
Cn1cccc1C(=O)NC(=O)COC(=O)Cc1coc2ccc3ccccc3c12 | inconclusive: 15.8 µM [quencher, side channel, partial curve]
CC(C)(C)NC(=O)C(=O)N/N=C/c1ccc(Br)cc1 | inconclusive: 25.1 µM [inhibitor, single point]
CSc1cccc(NC(=O)CSc2ccc(Cl)cc2)c1 | inconclusive: 39.8 µM [quencher, side channel, single point]
Cc1cccc(C)c1NC(=O)C(NC=O)c1ccccc1Cl (centres undefined) | inconclusive: 20 µM [inhibitor, single point]
Cc1noc(C)c1-c1ccc2ncnc(NCC3CCN(C)CC3)c2c1 | inactive
CSc1ncc(Cl)c(C(=O)O)n1 | inconclusive: 35.5 µM [inhibitor, single point]
Cc1ccc(S(=O)(=O)/N=C2/C=C(Sc3ncn[nH]3)C(=O)c3ccccc32)c(C)c1 | inconclusive: 35.5 µM [quencher, side channel, partial curve]
CC(=O)N(C1=C(Cl)C(=O)c2ccccc2C1=O)c1ccc(C(=O)O)cc1 | inconclusive: 25.1 µM [quencher, side channel, single point]
CCN1CCC2(CC1)C(C#N)=C(N)Oc1c2sc2nc(C)cc(C)c12 | inconclusive: 14.1 µM [fluorescent, side channel, partial curve]
CC(C)c1ccc2oc(=O)cc(CN3CCCCC3)c2c1 | inconclusive: 39.8 µM [inhibitor, partial curve, poor fit]
Cn1cc(Br)c(C(=O)Nc2sc3c(c2C(N)=O)CCCC3)n1 | inconclusive: 17.8 µM [quencher, side channel, partial curve]
COc1ccc(-n2c(N)c(C(=O)NCC3CCCO3)c3nc4ccccc4nc32)c(OC)c1 (centres undefined) | inconclusive: 39.8 µM [quencher, side channel, single point]

SMILES | Potency
C=CCC(O)(CC=C)CNC(=O)c1ccc(OC)c(OC2CCN(C(C)=O)CC2)c1 | inconclusive: 39.8 µM [inhibitor, single point]
COc1cc2c(cc1NC(=O)C(C)N1CCN(S(=O)(=O)c3ccc(C)c(C)c3)CC1)oc1ccccc12 (centres undefined) | inactive
CCc1nnc(NS(=O)(=O)c2ccc(NC(=O)c3ccccc3O)cc2)s1 | inconclusive: 28.2 µM [quencher, side channel, single point]
COc1ccc(-c2cc3nc(C)c(CCC(=O)N4CCN(c5ccccn5)CC4)c(C)n3n2)c(OC)c1 | inconclusive: 2.51 µM [fluorescent, side channel, full curve, poor fit]
O=C(O)c1cc(N=Nc2c(O)ccc3ccccc23)cc(C(=O)O)c1 | inconclusive: 6.31 µM [quencher, side channel, partial curve]
C=C1C(=O)OC2CC1C(OC(C)=O)CC(C)=CCCC(C)=CCC[C@@]2(C)O (some centres undefined) | inconclusive: 14.1 µM [fluorescent, side channel, partial curve]
CC[C@@H]1O[C@]2(C=C[C@@H]1C)C[C@H]1C[C@H](CC=C(C)[C@@H](O[C@@H]3C[C@H](OC)[C@H](O[C@@H]4C[C@H](OC)[C@H](O)[C@H](C)O4)[C@H](C)O3)[C@@H](C)C=CC=C3CO[C@@H]4[C@@H](O)C(C)=C[C@@H](C(=O)O1)[C@]34O)O2 | inconclusive: 12.6 µM [inhibitor, partial curve]
CCOC(=O)c1c(-c2ccccc2)csc1NC(=O)CSc1nc(C)cc(C)n1 | inconclusive: 22.4 µM [fluorescent, side channel, single point]
C=CCNC(=O)CSc1nc2ccccc2c(=O)n1CCc1ccc(OC)c(OC)c1 | inconclusive: 31.6 µM [inhibitor, single point]
COC(=O)C1=C(O)/C(=C\c2ccc(CNS(=O)(=O)c3ccc(Cl)cc3)o2)N=C1C | inconclusive: 31.6 µM [fluorescent, side channel, single point]
Cc1ccc(S(=O)(=O)/C=C/C#N)cc1 | inactive
COc1cc(/C=C2\C(=N)N3N=C(S(C)(=O)=O)SC3=NC2=O)ccc1OC(=O)c1ccco1 | inconclusive: 17.8 µM [quencher, side channel, partial curve]
O=C(/C=C/c1ccc(O)cc1)c1c(O)cc(O)cc1O | inconclusive: 14.1 µM [quencher, side channel, partial curve]
CC1Cc2ccccc2N1C(=O)CSc1nnc(NC(=O)Cc2cccs2)s1 (centres undefined) | inconclusive: 20 µM [quencher, side channel, partial curve]
CC(C)c1ccc(NC(=O)CCN2C(=O)c3ccc([N+](=O)[O-])cc3C2=O)cc1 | inconclusive: 25.1 µM [quencher, side channel, partial curve]
Cc1ccc([N+](=O)[O-])cc1N=Nc1c(C)[nH]n(C(N)=S)c1=O | inconclusive: 15.8 µM [quencher, side channel, partial curve]
Cc1cccc(OCCCSc2nc3ccccc3[nH]2)c1 | inconclusive: 12.6 µM [quencher, side channel, partial curve]
COc1ccccc1CNc1n[nH]c(NCc2ccccc2OC)n1 | inactive
O=C(NCc1ccccn1)c1ccc(Cn2c(=S)[nH]c3ccc(Br)cc3c2=O)cc1 | inconclusive: 39.8 µM [inhibitor, single point]
Oc1c(Br)cc(Br)cc1CNc1cnc2ccccc2c1 | inconclusive: 31.6 µM [quencher, side channel, single point]
COc1cc2c(cc1OC)C(c1cc3cc(C)ccc3[nH]c1=O)N(C(=O)c1ccco1)CC2 (centres undefined) | inconclusive: 3.55 µM [inhibitor, full curve, poor fit]
O=S(=O)(Nc1cccc(Oc2ccc(Cl)cc2)n1)c1ccc(F)cc1 | inactive
CS(=O)(=O)N1CCC(C(=O)Nc2cccc(Cl)c2)CC1 | inactive
COc1ccc(S(=O)(=O)N2CCC(C(=O)NCCc3ccccc3)CC2)cc1 | inconclusive: 31.6 µM [fluorescent, side channel, single point]
c1cncc(CNc2ncnc3ccc(-c4cccnc4)cc23)c1 | inconclusive: 39.8 µM [inhibitor, single point]
COCCn1c(SCC(=O)NC2CCCCC2C)nnc1-c1ccncc1 (centres undefined) | inconclusive: 2.82 µM [inhibitor, full curve, poor fit]
COc1ccc(/C=C/C(=O)c2cc3c(cc2N)OCO3)cc1 | inconclusive: 25.1 µM [quencher, side channel, partial curve]
